# Source: paper PMC4336329 (PLoS ONE, 2015)
# The whole screen tested about 310,000 compounds, of which about 2,200 (0.71%) showed an effect of 50% or more. The effect is printed as a negative number. The list shows a part of the results.
# Target: human ether-à-go-go-related gene (hERG) potassium channel (human, UniProt Q12809)
# Test: primary screen, population patch clamp on CHO cells stably expressing hERG
# human ether-à-go-go-related gene (hERG) potassium channel, sequence (Q12809 whole entry, looked up): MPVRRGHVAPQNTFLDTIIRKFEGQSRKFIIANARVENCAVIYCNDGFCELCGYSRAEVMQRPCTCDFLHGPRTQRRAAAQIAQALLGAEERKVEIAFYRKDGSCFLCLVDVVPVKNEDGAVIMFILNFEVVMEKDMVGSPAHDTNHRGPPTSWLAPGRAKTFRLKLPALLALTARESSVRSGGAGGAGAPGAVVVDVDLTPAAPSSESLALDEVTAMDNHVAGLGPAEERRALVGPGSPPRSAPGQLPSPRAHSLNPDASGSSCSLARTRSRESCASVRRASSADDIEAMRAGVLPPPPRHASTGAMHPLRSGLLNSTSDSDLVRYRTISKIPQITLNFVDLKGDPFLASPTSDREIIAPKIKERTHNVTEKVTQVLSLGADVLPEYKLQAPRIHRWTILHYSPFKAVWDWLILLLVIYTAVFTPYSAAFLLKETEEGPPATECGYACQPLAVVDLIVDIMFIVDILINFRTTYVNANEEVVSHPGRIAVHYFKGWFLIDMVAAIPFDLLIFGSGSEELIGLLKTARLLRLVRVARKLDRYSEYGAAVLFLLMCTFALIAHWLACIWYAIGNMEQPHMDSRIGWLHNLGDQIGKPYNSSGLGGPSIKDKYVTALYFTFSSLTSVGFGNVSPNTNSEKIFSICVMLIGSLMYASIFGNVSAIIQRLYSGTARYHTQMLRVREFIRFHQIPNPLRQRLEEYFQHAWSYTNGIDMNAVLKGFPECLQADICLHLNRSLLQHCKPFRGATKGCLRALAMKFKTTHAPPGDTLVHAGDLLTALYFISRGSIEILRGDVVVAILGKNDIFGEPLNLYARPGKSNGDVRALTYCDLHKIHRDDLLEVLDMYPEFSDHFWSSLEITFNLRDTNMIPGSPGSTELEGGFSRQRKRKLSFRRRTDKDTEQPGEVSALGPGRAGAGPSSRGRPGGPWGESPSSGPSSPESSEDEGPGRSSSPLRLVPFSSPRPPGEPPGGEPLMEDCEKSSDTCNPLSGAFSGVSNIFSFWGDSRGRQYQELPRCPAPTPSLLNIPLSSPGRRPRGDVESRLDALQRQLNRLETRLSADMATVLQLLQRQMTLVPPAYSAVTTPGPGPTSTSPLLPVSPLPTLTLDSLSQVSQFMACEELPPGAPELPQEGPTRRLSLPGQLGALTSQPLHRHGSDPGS
row,SMILES,"hERG current change (%, negative = inhibition) at 1uM [%]"
1,Cl.Cn1nnc(C(O)CNCc2cccs2)n1 (stereo not drawn),15
2,Cc1ccnc(NS(=O)(=O)c2ccc(NC(=O)CC(C)c3ccccc3)cc2)n1 (stereo not drawn),14.7
3,CC(=O)c1cccc(NC(=O)Nc2cc3sccc3n2C)c1,5.14
4,OCCOCCOCCn1c2ccccc2c2ccccc21,9.35
5,O=C(Nc1ccc(OCc2ccccc2)cc1)c1cccs1,14.3
6,CSc1nc2sc3c(c2c(=O)[nH]1)CCC3,14.2
7,Cc1ccc(C(C(=O)NC2CCCC2)N(C(=O)c2csnn2)C2CC2)cc1 (stereo not drawn),5.27
8,Cc1cc(C(=O)CSc2nnc(-c3ccccc3)n2C)c(C)n1C,-5.02
9,O=C(O)COCC(=O)Nc1ccc(-n2cnnn2)cc1,14.7
10,Cc1cc(C)c(OCCOCCN2CCCC2)c(C)c1,0.544
11,CCOC(=O)c1ccc(NC(=O)Nc2ncccc2C)cc1,7.91
12,COc1ccc(C(=O)NNC(=O)CN2CCC(n3nnc4cc(C)ccc43)CC2)cc1,5.47
13,Cc1no[n+]([O-])c1COc1ccc(/C=C(\C#N)C(N)=O)cc1,8.41
14,O=[N+]([O-])c1cccnc1Oc1ccc(C2SCCS2)cc1,11.9
15,CC(c1ccccc1)C(CC(=O)O)C(=O)NC1CCCCC1 (stereo not drawn),17.2
16,CCOC(=O)c1c(C)sc2c1N(C(=O)CN(CC)CC)c1cc(Cl)ccc1S2,12.6
17,Cc1ccc(C)c(NC(=O)c2oc(=O)c3ccccc3c2-c2ccccc2)c1,1.81
18,C=CCn1c(CCNC(=O)c2cccs2)n[nH]c1=S,1.38
19,O=C(NCc1ccco1)c1ccc2c(c1)N(Cc1ccccc1)C(=O)CS2=O (stereo not drawn),12.5
20,CCCc1ccc(OC(=O)c2ccc(O)cc2Cl)cc1,8.84
21,Cc1ccc(S(=O)(=O)Nc2nc3ccccc3nc2NCC2CCCO2)cc1 (stereo not drawn),11.8
22,NC(=O)c1ccc(NC(=O)CCc2nc3sc4c(c3c(=O)[nH]2)CCCC4)cc1,5.28

row,SMILES,"hERG current change (%, negative = inhibition) at 1uM [%]"
1,Cc1ccc(C)c(N(C(=O)c2ccco2)C(C(=O)NC2CCCC2)c2ccco2)c1 (stereo not drawn),4.24
2,COCCN(CCOC)C(=O)CC(=O)N(CCOC)CCOC,14.7
3,COc1ccccc1CNC(=O)CSc1nnc2c(n1)[nH]c1ccc(F)cc12,-3.03
4,COCCNC(=O)c1c(N)n(/N=C/c2cccs2)c2nc3ccccc3nc12,3.37
5,O=C(CNC(=O)c1ccco1)OCN1C(=O)c2ccccc2C1=O,14.3
6,CCCOc1ccc(C2C(C(=O)c3cc4ccccc4o3)=C(O)C(=O)N2c2cc(C)on2)cc1OC (stereo not drawn),18.7
7,CN(C)S(=O)(=O)c1ccc(NC(=O)N2CCN(c3ccccc3Cl)CC2)cc1,11.7
8,CCOC(=O)c1sc(-c2ccc(F)cc2)cc1N,8.96
9,Fc1ccccc1-c1ccc(/C=N/Nc2nc3ccccc3[nH]2)o1,12.2
10,NS(=O)(=O)c1ccc(CCNC(=O)COC(=O)Cc2c(F)cccc2Cl)cc1,11.8
11,Cc1ccc(OCC(=O)N/N=C2\CC(=O)CC(C)(C)C2)c(Br)c1,9.05
12,COC(=O)NCC(c1ccco1)N1CCN(c2ccc(OC)cc2)CC1 (stereo not drawn),9.27
13,COC(=O)Cn1cnc2c(C#N)c3n(c2c1=O)CCCCC3,0.865
14,COc1ccccc1/C=N/NC(=O)c1ccc(=O)n(C)c1,12.3
15,O=C(CCC(=O)Nc1nnc(C2CCCCC2)s1)NCC1CCCO1 (stereo not drawn),16.2
16,O=C(CSc1nnc(-c2n[nH]c3ccccc23)n1-c1ccccc1)Nc1cccc(Cl)c1,0.634
17,NC(=O)CC(NC(=O)c1ccccc1)c1ccc(NC2CCCCCCC2)c([N+](=O)[O-])c1 (stereo not drawn),7.77
18,Cc1ccc(-n2c(-c3nn(C)cc3Cl)n[nH]c2=S)cc1,14.8
19,Cc1cccc(N=C2NC(=O)/C(=C/c3cccnc3)S2)c1C,13
20,O=C(CN(C(=O)c1csnn1)c1ccccc1)NCc1ccc2c(c1)OCO2,-6.32
21,Cc1nn(Cc2ccc(Cl)c(Cl)c2)c(C)c1NC(=O)c1cn(-c2ccccc2)nc1-c1ccccc1,9.66
22,COc1ccc(NC(=O)c2ccc(NC(=O)CSc3nc(N)cc(=O)[nH]3)cc2)cc1,10.3

row,SMILES,"hERG current change (%, negative = inhibition) at 1uM [%]"
1,CCN(c1ccccc1)S(=O)(=O)c1ccc(C(=O)NCCCn2ccnc2)cc1,8.42
2,CCCCN(CC)CCCNC(=O)Cn1nc(Cc2ccncc2)c2ccccc2c1=O,-5.25
3,COc1ccc(NC(=O)CN(C)C(=O)CCCNC(=O)c2ccc(Cl)cc2)cc1,-5.16
4,C/C(=N\NS(=O)(=O)c1ccc(C)c([N+](=O)[O-])c1)c1cccs1,15
5,COCCN(C(=O)COC(=O)c1oc2ccc(OC)cc2c1C)c1c(N)n(Cc2ccccc2)c(=O)[nH]c1=O,5.78
6,CCCCNS(=O)(=O)c1ccc2nc(-c3cccnc3)cc(C(=O)NCCCOCC)c2c1,8.06
7,CCOC(=O)C1=C(C)Nc2sc(C(=O)c3ccc(F)cc3)c(N)c2C1c1ccc(C(=O)OC)cc1 (stereo not drawn),12.3
8,CCc1nn(C(C)C(=O)NC(C)CCc2ccco2)c(=O)c2cc3occc3n12 (stereo not drawn),-1.26
9,O=C(Nc1nnc(-c2cc(Cl)ccc2Cl)o1)c1ccco1,-16.7
10,CCOc1ccc(CN2CCN(CCCn3cccn3)CC2CCO)cc1 (stereo not drawn),-83
11,CNC(=O)COc1ccc(-c2nn(C)c(=O)c3ccccc23)cc1,9.87
12,CCC(=O)Nc1ccc(C(=O)N/N=C/c2c(C)[nH]c3ccccc23)cc1,6.93
13,Cc1onc(-c2ccccc2Cl)c1C(=O)N1C=CC(C(F)(F)F)=NCC1,7.56
14,COC(=O)c1c(NC(=O)c2ccccc2)sc(Cc2ccccc2)c1C,11.7
15,Cc1nn(-c2ccccc2)c(C)c1/C=C/C(=O)OCC(=O)NC1CCS(=O)(=O)C1 (stereo not drawn),0.376
16,O=S(=O)(Cc1ccc(Cl)cc1)N1CCN(Cc2ccccc2)CC1,3.38
17,O=C(NN=C1CCCCC1)Nc1ccccc1Cl,7.34
18,CC(C)c1ncc(C(O)c2cccc3ccccc23)n1C (stereo not drawn),6.84
19,CCCn1c(N2CCN(CC(=O)c3c(C)n(C)c4ccccc34)CC2)nc2c1c(=O)[nH]c(=O)n2C,-0.255
20,C/C(CCC1CC(C)OC1=O)=N\NC(N)=S (stereo not drawn),4.81
21,CC(C)c1ccc2[nH]c3c(c2c1)[C@@H]1CCN2C(=O)CCC[C@H](C3)[C@H]12,6.39
22,CC(=O)Nc1ccc(S(=O)(=O)N2CCC(C(N)=O)(N3CCCCC3)CC2)cc1,10.4

row,SMILES,"hERG current change (%, negative = inhibition) at 1uM [%]"
1,COc1cc2nc(CN(C)Cc3ccc(SC)cc3)[nH]c(=O)c2cc1OC,-1.18
2,CCCCCCCCNc1nc(Cl)nc(NCCN2CCOCC2)n1,4.17
3,O=C(/C=C/c1ccc(Cl)cc1)OCC(=O)c1ccc[nH]1,12.4
4,COc1ccc(Cl)cc1NC(=O)C1CCN(S(C)(=O)=O)CC1,8.98
5,C/C(=N\NC(=O)Cn1cc([N+](=O)[O-])cn1)c1ccco1,2.82
6,CCOc1ccc(NC(=O)Nc2nc(SCC)ns2)cc1,12.3
7,O=[N+]([O-])c1cccc(S(=O)(=O)c2ccc(NCCOCCO)c([N+](=O)[O-])c2)c1,-2.71
8,Cc1cccc(OCCSc2nc3c([nH]2)c(=N)ncn3Cc2ccccc2)c1,4.29
9,COCCc1ccc(OCC(O)CNC(C)C)cc1.O=C(O)C(O)C(O)C(=O)O (stereo not drawn),6.18
10,Cc1ccc(C)c(OCC(=O)N/N=C/c2c(C)nn(-c3ccccc3)c2Cl)c1C,3.04
11,CCOC(CCNC(=O)c1cn(C)c(=O)c2c1c1ccccc1n2C)OCC,10.1
12,COc1ccc(-n2c(Cc3cccn3C)nnc2SCC(=O)NCc2ccccc2Cl)cc1,4.63
13,CCCCN(C1CCS(=O)(=O)C1)S(=O)(=O)c1cc(C)ccc1C (stereo not drawn),-1.18
14,N#CCCN(Cc1cccnc1)S(=O)(=O)c1ccc(S(=O)(=O)NC2CCCCC2)cc1,12.3
15,CN(C)c1ccc(/C=N/NC(=O)c2ccc(CN3C(=O)c4cccc5cccc3c45)cc2)cc1,8.79
16,CCC(C)COC(=O)c1ccc(C(=O)O)cc1 (stereo not drawn),5.86
17,Cc1cccc(N2CCN(C(c3ccncc3)c3nnnn3C(C)(C)C)CC2)c1C (stereo not drawn),-2.35
18,S=C(Nc1ccc(Cl)cc1Cl)Nn1cnnc1,29.8
19,O=C(Nc1ccc(Cl)cc1)Nc1nnc(/C=C/c2ccccc2)s1,8.01
20,Cc1c(C(=O)N2CCN(C(=O)c3ccco3)CC2)oc2c(Cl)cccc12,6.18
21,CC(C)C(=O)NC(=S)Nc1ccc(S(=O)(=O)Nc2ccccc2)cc1,-3.61
